Source: paper PMC6919601, “Identification of Plasmodium dipeptidyl aminopeptidase allosteric inhibitors by high throughput screening” (PLoS ONE, 2019)
The campaign covered roughly 110,000 compounds. About 230 (0.21%) showed an effect of 50% or more. This is one part of the list.

The molecules below were run against DPAP1 (Plasmodium falciparum, UniProt Q8IIJ9) (assay: primary screen, percent inhibition; read by cleavage of a fluorogenic dipeptide substrate; higher = more effect of the substance).
DPAP1, sequence (Q8IIJ9 whole entry, looked up): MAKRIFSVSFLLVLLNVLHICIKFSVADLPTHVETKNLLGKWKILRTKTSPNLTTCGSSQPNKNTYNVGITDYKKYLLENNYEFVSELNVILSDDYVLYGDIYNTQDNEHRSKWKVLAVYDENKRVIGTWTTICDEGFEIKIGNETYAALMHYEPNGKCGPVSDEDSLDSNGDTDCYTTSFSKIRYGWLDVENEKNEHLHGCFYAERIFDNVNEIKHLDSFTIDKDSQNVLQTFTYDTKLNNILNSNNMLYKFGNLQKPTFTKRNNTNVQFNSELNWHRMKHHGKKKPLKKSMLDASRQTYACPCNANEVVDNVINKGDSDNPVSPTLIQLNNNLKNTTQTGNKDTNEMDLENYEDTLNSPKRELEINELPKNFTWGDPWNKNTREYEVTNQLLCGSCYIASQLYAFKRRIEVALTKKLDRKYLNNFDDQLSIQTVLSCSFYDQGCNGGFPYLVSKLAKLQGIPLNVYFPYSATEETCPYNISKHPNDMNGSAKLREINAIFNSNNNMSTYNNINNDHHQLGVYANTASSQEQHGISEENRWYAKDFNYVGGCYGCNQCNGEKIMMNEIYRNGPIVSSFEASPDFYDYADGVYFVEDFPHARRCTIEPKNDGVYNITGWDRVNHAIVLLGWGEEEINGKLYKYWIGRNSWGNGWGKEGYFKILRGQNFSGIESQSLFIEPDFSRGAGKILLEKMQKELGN
Design: species or system P. falciparum D10 trophozoite lysates; single well
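Also: 30 min substrate incubation versus DMSO and 10 µM JCP410 controls.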

Compound	% Inhibition @ 10 uM [%]
O=C(Nc1ccccc1)Nc1ccc(Nc2ccccc2)cc1	-4.71
C1=CC2CC1CC2CN1CCN(C/C=C/c2ccccc2)CC1 (centres unmarked)	1.9
CC1(C(=O)Nc2ncc(Cc3cccc(C(F)(F)F)c3)s2)Cc2ccccc2C(=O)O1 (centres unmarked)	0.953
Cc1nc(-c2ccccc2)nc2c1CCCC2	-1.86
Cc1cccc(C(=O)Nc2nnc(/C=C/c3ccccc3)s2)c1	-4.24
C/C(Cl)=C/CSc1nc2c(c(=O)[nH]c(=O)n2C)n1Cc1ccccc1Cl	2.36
CC(=O)Nc1ccc(S(=O)(=O)N2CCC(C(N)=O)CC2)cc1	-4.21
C=CCc1ccc(OCC(=O)O)c(OC)c1	3.47
O=C(c1ccc(CSc2nc3ccncc3n2Cc2cccc(F)c2)cc1)N1CCCC1	-2.37
O=C(COc1ccc(Br)cc1)N(Cc1ccccc1)Cc1ccccc1	17.4
CCn1c(C)nc2cc(S(=O)(=O)NC)ccc21	1.29
CC(=O)c1c(NC(=O)C(C)C)nc(C)nc1-c1ccccc1	-5.46
O=C(c1ccc(-c2ccccc2)cc1)N1CCN(Cc2ccccc2)CC1	-10.8
COc1ccccc1N1CCN(C(=O)N[C@@H](CC(C)C)C(=O)NCC#N)CC1	-5.2
CCc1nnc(NC(=O)CSc2nc3c(c(=O)n2Cc2ccccc2)SCC3)s1	1.66
CSc1nc2nc(O)cc(O)c2s1	1.76
C=CCN1C(=O)N/C(=C/c2ccc(OC(C)C)cc2)C1=O	-5.04
CCOC(=O)c1nc(-c2cc[n+](C)cc2)no1	4.33
c1ccc(CNCC2OCCc3ccccc32)cc1 (centres unmarked)	-6.01
CC1=CSC2=NC(=O)/C(=C\c3cccn3-c3nnc(-c4ccccc4)s3)C(=N)N12	0.208
O=S(=O)(Nc1nc2ccccc2s1)c1ccccc1	-5.33
Cc1cccc(N2CCN(Cc3cc([N+](=O)[O-])ccc3Cl)CC2)c1C	-5.57
CC(C)CC(C(=O)NCC#N)c1cccc(-c2ccc(O)c(-c3ccno3)c2)c1 (centres unmarked)	3.19
COc1ccc(C2C(C(=O)c3ccc(C)cc3)=C(O)C(=O)N2CCCn2ccnc2)c(OC)c1 (centres unmarked)	0.487
O=C(C1=C(O)C(=O)N(Cc2ccco2)C1c1cccc(O)c1)c1ccc2c(c1)OCCO2 (centres unmarked)	-9.82

Compound	% Inhibition @ 10 uM [%]
COc1cccc(NC(=O)c2ccc(OC(F)F)cc2)c1	-3.69
COC(=O)c1ccc(C2c3c(oc4ccccc4c3=O)C(=O)N2c2nncs2)cc1 (centres unmarked)	5.3
CC(C)c1cccc(C(C)C)c1NC(=O)Cn1cnc2ccccc2c1=O	-5.67
COC(=O)c1cc2sccc2n1CC(=O)Cc1ccc(OC)cc1OC	-6.95
N#CC1=C(N)OC2=C(C(=O)CC(c3ccccc3)C2)C1c1cccc(Cl)c1Cl (centres unmarked)	27.9
Cc1cc(C)c2[nH]c(C)c(CCN)c2c1	-3.04
CCC1CCCCN1CCCNC(=O)C1CCN(Cc2nc(-c3ccc(Cl)cc3)oc2C)CC1 (centres unmarked)	2.37
CCc1nc2sc3c(c2c2nncn12)CCCC3	-3.92
CCOC(=O)c1c(C)[nH]c(C)c1S(=O)(=O)NC1CCC(C)CC1 (centres unmarked)	0.533
CC(C)=CCC/C(C)=C/CN1CCN(CCO)CC1	2.91
CN1C(=O)NC(=O)/C(=C\c2ccc(-c3ccccc3F)o2)C1=O	-0.834
CCOc1ccc(-c2nonc2NC(=O)c2cc3ccccc3oc2=O)cc1OCC	-6.98
Cn1cnc2c1c(=O)n(Cc1ccccc1Cl)c(=O)n2C	-1.57
COc1ccc(OC)c(-c2cc(C(=O)NCC(C)C)no2)c1	2.98
Cc1cccc(-c2nc3n(n2)C(=O)CC(c2ccc(Cl)cc2)S3)c1 (centres unmarked)	-4.62
CCc1nnc2c(NCc3cc(OC)ccc3OC)nc3ccccc3n12	2.25
Cc1ccc(C(C)C)c(OCC(O)CN2CCN(C)CC2)c1 (centres unmarked)	4.42
NS(=O)(=O)c1ccc(NC(=O)CNS(=O)(=O)c2ccc(Cl)cc2)cc1	2.43
CC(NC(=O)C1CCCCC1C(=O)O)c1ccccc1 (centres unmarked)	0.709
N#Cc1ccc(Oc2cccc(C(=O)O)c2)cc1	-10.1
CCc1ccc(N/C(=N\C(C)=O)Nc2nc(C)cc(C)n2)cc1	-6.65
CC(C)Cn1cc(C(=O)NC(C)C)c2c3ccccc3n(C)c2c1=O	-10
O=C(NC(Cc1ccccc1)Cc1ccccc1)c1ccccc1Br	-0.292
CCCNC(=O)c1ccc(N2CCN(CCO)CC2)nc1	1.94
NC1CCN(c2nc(-c3ccc(F)cc3)cs2)CC1	-6.56
